Series [1] concerns the molecule itself. Description: fluorescence intensity fluctuation (FIF) spectrometry; EphA2-eYFP in the plasma membrane of HEK293T cells, confocal imaging, hypo-osmotic medium, whole membrane; with 1200 nM Dimer 2.
Series [2] deals with the molecule itself. Description: fluorescence intensity fluctuation (FIF) spectrometry; EphA2-eYFP in the plasma membrane of HEK293T cells, confocal imaging, hypo-osmotic medium, whole membrane, 15 x 15 pixel segments; no ligand.
Series [3] concerns the molecule itself. Description: fluorescence intensity fluctuation (FIF) spectrometry; augmented FIF on the high-intensity puncta (SLIC algorithm), HEK293T cells; with m-ephrinA1.
Series [4] deals with the molecule itself. Description: fluorescence intensity fluctuation (FIF) spectrometry; augmented FIF on the high-intensity puncta (SLIC algorithm), HEK293T cells; with Dimer 5.

The record followed here is article PMC9512837, “The efficacy of receptor tyrosine kinase EphA2 autophosphorylation increases with EphA2 oligomer size” (The Journal of Biological Chemistry, 2022).

By stoichiometry N is commonly meant a count of units in the complex or per binding partner.

B1: EphA2-eYFP (receptor)
chain: [about 500 residues not shown]IGGVAVGVVLLLVLAGVGFFIHRRRKNQRARQSPEDVYFSKSEQLKPLKTYVDPHTYEDPNQAVLKFTTEIHPSCVTRQKVIGAGEFGEVYKGMLKTSSGKKEVPVAIKTLKAGYTEKQRVDFLGEAGIMGQFSHHNIIRLEGVISKYKPMMIITEYMENGALDKFLREKDGEFSVLQLVGMLRGIAAGMKYLANMNYVHRDLAARNILVNSNLVCKVSDFGLSRVLEDDPEATYTTSGGKIPIRWTAPEAISYRKFTSASDVWSFGIVMWEVMTYGERPYWELSNHEVMKAINDGFRLPTPMDCPSAIYQLMMQCWQQERARRPKFADIVSILDKLIRAPDSLKTLADFDPRVSIRLPSTSGSEGVPFRTVSEWLESIKMQQYTEHFMAAGYTAIEKVVQMTNDDIKRIGVRLPGHQKRIAYSLLGLKDQVNTVGIPI
notes: EphA2 receptor tyrosine kinase; also called receptor tyrosine kinase EphA2; source: HEK293T, transiently transfected (pcDNA3.1 (+)), in the plasma membrane of the cells; not shown: eYFP (via a 15 amino acid (GGS)5 flexible linker), C-terminal, kept
For B1, the figures for the “stoichiometry N” value in series [1] and in series [2] were greater than 2 and 2, respectively. The “fold increase of the mode of the brightness distribution, puncta against whole membrane” value in series [3] turned out to be 2 fold; in series [4], 6 fold.
